# Where “and” joins values, the source holds several entries; their conditions need not be identical. Equal values may be shown once. Inconclusive results, whose numbers are uncertain, are shown with a selection of clear calls. Where the call is inconclusive, the potency comes from a doubtful curve fit. A structure can be active in one record and inactive in another. Calls of active or inactive are those of the source. The call rests on the fitted dose curve; in most records, active means well fitted inhibition curve with a large enough effect in the repeat runs; inconclusive means weak or mixed curves, or effect the other way; inactive means no such curve, though single readings can be large or run the other way.
# Target: Nuclear receptor subfamily 1 group I member 3 (Homo sapiens) (UniProt Q14994)
# Sequence of UniProt Q14994 (Q14994 whole entry, looked up): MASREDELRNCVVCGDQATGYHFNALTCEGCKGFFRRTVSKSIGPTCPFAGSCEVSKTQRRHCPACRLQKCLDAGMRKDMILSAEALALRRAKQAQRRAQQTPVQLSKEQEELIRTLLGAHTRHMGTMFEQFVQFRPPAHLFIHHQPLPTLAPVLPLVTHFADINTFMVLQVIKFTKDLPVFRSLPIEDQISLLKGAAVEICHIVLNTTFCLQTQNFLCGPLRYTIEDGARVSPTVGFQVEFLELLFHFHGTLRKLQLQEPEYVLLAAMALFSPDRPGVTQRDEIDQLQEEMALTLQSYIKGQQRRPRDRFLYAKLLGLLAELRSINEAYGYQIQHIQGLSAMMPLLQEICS
# Assay: qHTS assay to identify small molecule antagonists of the constitutive androstane receptor (CAR) signaling pathway (AID 1224838);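 further: HepG2 cells stably expressing hCAR with CYP2B6 luciferase reporter stimulated by CITCO; nearly all actives have a fitted effect of over 40% in size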
# Details: HepG2-CYP2B6-hCAR luciferase, CITCO-stimulated, 24 h; series mostly up to 92.4 µM
# Source text: U.S. Tox21 Program National Center for Advancing Translational Sciences [NCATS] NIH Chemical Genomics Center [NCGC] U.S. Environmental Protection Agency [EPA] National Institutes of Environmental Health Sciences [NIEHS] National Toxicology Program [NTP] U.S. Food and Drug Administration [FDA] Tox21 Assay Overview: The constitutive androstane receptor (CAR) is a nuclear receptor which regulates multiple drug metabolizing enzymes (DMEs) and transporters. Activating CAR will generally increase the transcription and subsequent translation of CYP2B6 and CYP3A4. These two DMEs represent about 50% of the drug metabolizing potential in the body. When CAR is deactivated, the metabolizing potential in the body will decrease, subsequently increasing the toxicity in the body or lowering the therapeutic potential of a pro-drug. Recently, there have also been studies performed indicating CARs role in energy metabolism and cancer therapy. Therefore, inhibiting CARs activity could have a potential effect on diabetes and cancer. Identifying environmental toxins and compounds which modulate CAR, through the use of the Tox21 10K compound collection, will be an important step in determining the toxicity and potential therapeutic effects these factors will have on the human body.
# Tox21 Assay Protocol Summary: A double-stable (hCAR and CYP2B6-2.2kb) transfected cell line, derived from human hepatoma (HepG2) cells, was utilized for the duration of the quantitative high-throughput screens. The HepG2-CYP2B6-hCAR cells suspended in DMEM culture medium supplemented with 10% FBS, 5 ug/mL blasticidin, 0.5 mg/mL geneticin, 100 U/mL penicillin and 100 ug/mL streptomycin were dispensed at 2500 cells/4 uL/well in 1536-well white solid bottom plates using a Multidrop Combi. After the assay plates were incubated at 37 C/5% CO2 for 4 hrs, 23 nL of compounds at 15 concentrations (from 5-48 columns) or positive control (from 1 to 4 columns) were transferred to the assay plates using a Pintool station. One uL of CITCO, was added using a Flying Reagent Dispenser to generate a final concentration of 50 nM CITCO inside each well. After a 24 hr incubation period at 37 C/5% CO2, four uL of ONE-Glo reagent was added into the assay plates using a Flying Reagent Dispenser. After a 30 min incubation period at room temperature, the luminescence intensity in the assay plates was measured using a ViewLux plate reader.
# Potency means the concentration at half of the fitted maximal effect; tags describe the fitted curve by direction and shape.
row,Structure (SMILES),Potency
1,O=[N+]([O-])c1cccc(I)c1,inactive
2,Cc1ccc2c(c1)C(=O)c1ccccc1C2=O,inactive
3,CCCCCCCCCCCC[N+](C)(C)Cc1ccccc1,"inconclusive: 67.3 µM [inhibitor, single point] and active: 83.6 µM and active: 29.8 µM"
4,N=C1C=CC(=C(c2ccc(N)cc2)c2ccc(N)cc2)C=C1,"inconclusive: 68.6 µM [inhibitor, single point]"
5,CN1N=C(C(N)=O)CCC1=O,inactive
6,CCO[C@@H]1O[C@H](C(COCc2ccccc2)OCc2ccccc2)[C@H](OCc2ccccc2)[C@H]1O (stereo not given in full),"inconclusive: 2.37 µM [inhibitor, full curve]"
7,COC(=O)C1=C(C)NC(C)=C(C(=O)OCCN(C)Cc2ccccc2)C1c1cccc([N+](=O)[O-])c1 (stereo not given),"inconclusive: 76.5 µM [inhibitor, single point]"
8,NS(=O)(=O)c1ccc(N2CCCCS2(=O)=O)cc1,"inconclusive: 2.11 µM [inhibitor, full curve]"
9,CC1(C)OC[C@@H]2O[C@@]3(C(=O)O)OC(C)(C)O[C@H]3[C@@H]2O1,"inconclusive: 27.3 µM [inhibitor, partial curve, poor fit]"
10,CCCCCCCCCCCC[N+](C)(C)C,"inconclusive: 60.9 µM [inhibitor, single point] and inconclusive: 77 µM [inhibitor, single point]"
11,Cc1cn([C@H]2C[C@H](F)[C@@H](CO)O2)c(=O)[nH]c1=O,inactive
12,C[C@@H]1CC[C@H]2C(C)(C)[C@H]3C[C@@]12CC[C@@]3(C)O,inactive
13,C=C(C)C(=O)OCC(O)COc1ccc(C(C)(C)c2ccc(OCC(O)COC(=O)C(=C)C)cc2)cc1 (stereo not given),"inconclusive: 77 µM [inhibitor, single point]"
14,S=c1nccc[nH]1,"inconclusive: 30.7 µM [inhibitor, partial curve, poor fit]"
15,O=C(c1ccccc1)c1ccc(O)cc1O,"inconclusive: 69.9 µM [inhibitor, single point]"
16,CC[C@@]1(O)C(=O)OCc2c1cc1n(c2=O)Cc2cc3c(CN(C)C)c(O)ccc3nc2-1,active: 0.15 µM
17,Nc1cc(C(F)(F)F)ccc1S,"inconclusive: 29.8 µM [inhibitor, single point]"
18,C=CC(C)(CCC=C(C)C)OC(C)=O (stereo not given),inactive
19,C=CC(=O)Nc1cc2c(Nc3ccc(F)c(Cl)c3)ncnc2cc1OCCCN1CCOCC1,"inconclusive: 33.5 µM [inhibitor, single point]"
20,CCCCCCC(CO)CCCC (stereo not given),inactive

row,Structure (SMILES),Potency
1,C1CCCNCC1,"inconclusive: 20.4 µM [inhibitor, partial curve]"
2,O=c1[nH]cnc2c1ncn2[C@@H]1O[C@H](CO)[C@@H](O)[C@H]1O,inactive
3,C=CC(=O)OCCOCC(CC)(COCCOC(=O)C=C)COCCOC(=O)C=C,"inconclusive: 89.9 µM [inhibitor, single point]"
4,Nc1ccc(C(=O)OCC(O)CO)cc1 (stereo not given),"inconclusive: 3.35 µM [inhibitor, single point]"
5,Nc1ncn([C@@H]2O[C@H](CO)[C@@H](O)[C@H]2O)c(=O)n1,"inconclusive: 68.6 µM [inhibitor, single point]"
6,Oc1ccc(Cl)cc1Sc1cc(Cl)ccc1O,"inconclusive: 33.5 µM [inhibitor, single point]"
7,O=C1NC2CCCCN2C12CCN(CCCN1c3ccccc3CCc3ccc(Cl)cc31)CC2 (stereo not given),"inconclusive: 37.6 µM [inhibitor, single point]"
8,CCN(CC)c1ccc2c(-c3ccc(S(=O)(=O)O)cc3S(=O)(=O)[O-])c3ccc(=[N+](CC)CC)cc-3oc2c1,active: 28.2 µM
9,CCOC(=O)c1ncn2c1CN(C)C(=O)c1cc(F)ccc1-2,"inconclusive: 26.6 µM [inhibitor, partial curve, poor fit]"
10,CC(=O)OC(OC(C)=O)c1ccc([N+](=O)[O-])o1,active: 55.4 µM
11,CCCCCCCCCCCCCC[N+](C)(C)Cc1ccccc1,"inconclusive: 69.6 µM [inhibitor, single point]"
12,Nc1nnc(-c2ccc([N+](=O)[O-])o2)o1,"inconclusive: 68.6 µM [inhibitor, single point]"
13,NS(=O)(=O)c1cc2c(cc1Cl)NC(CC1CCCC1)NS2(=O)=O (stereo not given),"inconclusive: 2.98 µM [inhibitor, single point]"
14,OCC(CO)(CO)COCC(CO)(CO)CO,inactive
15,C[N+](C)(C)CCCCCC[N+](C)(C)C,active: 26.6 µM
16,C=C[C@@]1(C)CC(=O)[C@]2(O)[C@@]3(C)[C@@H](O)CCC(C)(C)[C@@H]3[C@H](O)[C@H](OC(C)=O)[C@@]2(C)O1,active: 27.3 µM and inactive
17,Clc1ccc2c(c1)CCc1cccnc1C2=C1CCNCC1,inconclusive: 26.6 µM [inhibitor]
18,CC1(C)O[C@@H]2C[C@H]3[C@@H]4CCC5=CC(=O)CC[C@]5(C)[C@@]4(F)[C@@H](O)C[C@]3(C)[C@]2(C(=O)CCl)O1,inactive
19,c1ccc(CNCCNCc2ccccc2)cc1,inactive
20,C=CC(=O)OCCCCCCOC(=O)C=C,"inconclusive: 69.4 µM [inhibitor, single point]"

# — PubChem BioAssay (Tox21)
